Data: patent US12043670B2, “Anti-BCMA antibody-drug conjugates and methods of use” (Eisai R&D Management Co., Ltd., priority 2020, dated 2024)
Where a chain is given by its changes, count along the chain named.

B1: AB200-(2Vk30)_R2-VH-v71 (antibody)
heavy: QVQLVQSGAEVKKPGSSVKVSCKASGGTFSNYWIHWVRQAPGQGLEWMGATYRIHSDTNYNEKFKSRVTITADKSTSTAYMELSSLRSEDTAVYYCARGAIFHGYDVIDNWGQGTLVTVSSASTKGPSVFPLAPSSKSTSGGTAALGCLVKDYFPEPVTVSWNSGALTSGVHTFPAVLQSSGLYSLSSVVTVPSSSLGTQTYICNVNHKPSNTKVDKKVEPKSC
light: DIQMTQSPSSLSASVGDRVTITCRASQSISSYLNWYQQKPGKAPKLLIYATSNLQIGVPSRFSGSGSGTDFTLTISSLQPEDFATYYCQQYRRIPWTFGQGTKLEIKRTVAAPSVFIFPPSDEQLKSGTASVVCLLNNFYPREAKVQWKVDNALQSGNSQESVTEQDSKDSTYSLSSTLTLSKADYEKHKVYACEVTHQGLSSPVTKSFNRGEC
B2: AB200-(2Vk30)_R2-VH-v74 (antibody)
heavy: B1 heavy with N59Y, N61A, F102Y, Y105F
light: B1 light
B3: AB200-(2Vk30)_R2-VH-v10 (antibody)
heavy: B1 heavy with F29Y, I54S, E62Q, F64Y, F102Y, D109E
light: B1 light
B4: AB200-(2Vk30)_R2-VH-v13 (antibody)
heavy: B1 heavy with T28S, A50G, I54S, N59Y, N61A, E62Q, F102Y, D109E
light: B1 light
B5: AB200-(2Vk30)_R2-VH-v16 (antibody)
heavy: B1 heavy with T28S, A50G, I54S, E62Q
light: B1 light
B6: AB200-(2Vk30)_R2-VH-v19 (antibody)
heavy: B1 heavy with A50G, I54S, D57T, N59Y, E62Q, F102Y, Y105F
light: B1 light
B7: AB200-(2Vk30)_R2-VH-v23 (antibody)
heavy: B1 heavy with A50G, I54S, N59Y, E62Q, F64Y
light: B1 light
B8: AB200-R1H32-R2Vk19 (antibody)
heavy: B1 heavy with I34M, I54S, N59Y, E62Q, F102Y
light: B1 light with I56S, I94L, T97S
B9: AB200-R1H32-R2Vk20 (antibody)
heavy: B1 heavy with I34M, I54S, N59Y, E62Q, F102Y
light: B1 light with I56S
B10: AB200-R1H32-R2Vk21 (antibody)
heavy: B1 heavy with I34M, I54S, N59Y, E62Q, F102Y
light: B1 light with I56S, Y91F, I94L
B11: AB200-R1H32-R2Vk22 (antibody)
heavy: B1 heavy with I34M, I54S, N59Y, E62Q, F102Y
light: B1 light with I56S, R93K, T97S
B12: AB200-R1H32-R2Vk23 (antibody)
heavy: B1 heavy with I34M, I54S, N59Y, E62Q, F102Y
light: B1 light with I56S, Y91F, R93K
B13: AB200-R1H32-R2Vk24 (antibody)
heavy: B1 heavy with I34M, I54S, N59Y, E62Q, F102Y
light: B1 light with L54I, I56S, I94L, T97S
B14: AB200-R1H32-R2Vk25 (antibody)
heavy: B1 heavy with I34M, I54S, N59Y, E62Q, F102Y
light: B1 light with L54I, I56S
B15: AB200-R1H32-R2Vk26 (antibody)
heavy: B1 heavy with I34M, I54S, N59Y, E62Q, F102Y
light: B1 light with L54I, I56S, Y91F, I94L
B16: AB200-R1H32-R2Vk29 (antibody)
heavy: B1 heavy with I34M, I54S, N59Y, E62Q, F102Y
light: B1 light with I94L, T97S
B17: AB200-R1H32-R2Vk30 (antibody)
heavy: B1 heavy with I34M, I54S, N59Y, E62Q, F102Y
light: B1 light
B18: AB200-R1H32-R2Vk31 (antibody)
heavy: B1 heavy with I34M, I54S, N59Y, E62Q, F102Y
light: B1 light with Y91F, I94L
B19: AB200-R1H32-R2Vk1 (antibody)
heavy: B1 heavy with I34M, I54S, N59Y, E62Q, F102Y
light: B1 light with T51A, N53S, I56S, Y91F, R93K, I94L, T97S
B20: AB200-R1H32-R2Vk32 (antibody)
heavy: B1 heavy with I34M, I54S, N59Y, E62Q, F102Y
light: B1 light with R93K, T97S
B21: AB200-R1H32-R2Vk33 (antibody)
heavy: B1 heavy with I34M, I54S, N59Y, E62Q, F102Y
light: B1 light with Y91F, R93K
B22: AB200-R1H32-R2Vk34 (antibody)
heavy: B1 heavy with I34M, I54S, N59Y, E62Q, F102Y
light: B1 light with L33I, I56S, I94L, T97S
B23: AB200-R1H32-R2Vk35 (antibody)
heavy: B1 heavy with I34M, I54S, N59Y, E62Q, F102Y
light: B1 light with L33I, I56S
B24: AB200-R1H32-R2Vk36 (antibody)
heavy: B1 heavy with I34M, I54S, N59Y, E62Q, F102Y
light: B1 light with L33I, I56S, Y91F, I94L
B25: AB200-R1H32-R2Vk44 (antibody)
heavy: B1 heavy with I34M, I54S, N59Y, E62Q, F102Y
light: B1 light with L33I, I94L, T97S
B26: AB200-R1H32-R2Vk45 (antibody)
heavy: B1 heavy with I34M, I54S, N59Y, E62Q, F102Y
light: B1 light with L33I
B27: AB200-R1H32-R2Vk46 (antibody)
heavy: B1 heavy with I34M, I54S, N59Y, E62Q, F102Y
light: B1 light with L33I, Y91F, I94L
B28: AB200-R1H32-R2Vk3 (antibody)
heavy: B1 heavy with I34M, I54S, N59Y, E62Q, F102Y
light: B1 light with I56S, Y91F, R93K, I94L, T97S
B29: AB200-R1H32-R2Vk5 (antibody)
heavy: B1 heavy with I34M, I54S, N59Y, E62Q, F102Y
light: B1 light with Y91F, R93K, I94L, T97S
B30: AB200-R1H32-R2Vk9 (antibody)
heavy: B1 heavy with I34M, I54S, N59Y, E62Q, F102Y
light: B1 light with T51A, N53S, I56S, I94L, T97S
B31: AB200-R1H32-R2Vk10 (antibody)
heavy: B1 heavy with I34M, I54S, N59Y, E62Q, F102Y
light: B1 light with T51A, N53S, I56S
B32: AB200-R1H32-R2Vk11 (antibody)
heavy: B1 heavy with I34M, I54S, N59Y, E62Q, F102Y
light: B1 light with T51A, N53S, I56S, Y91F, I94L
B33: AB200-R1H32-R2Vk12 (antibody)
heavy: B1 heavy with I34M, I54S, N59Y, E62Q, F102Y
light: B1 light with T51A, N53S, I56S, R93K, T97S
B34: AB200-R1H32-R2Vk13 (antibody)
heavy: B1 heavy with I34M, I54S, N59Y, E62Q, F102Y
light: B1 light with T51A, N53S, I56S, Y91F, R93K
B35: AB200-R1H32-R2Vk14 (antibody)
heavy: B1 heavy with I34M, I54S, N59Y, E62Q, F102Y
light: B1 light with L33I, T51A, N53S, I56S, I94L, T97S
B36: AB200-R1H32-R2Vk15 (antibody)
heavy: B1 heavy with I34M, I54S, N59Y, E62Q, F102Y
light: B1 light with L33I, T51A, N53S, I56S
B37: AB200-R1H32-R2Vk16 (antibody)
heavy: B1 heavy with I34M, I54S, N59Y, E62Q, F102Y
light: B1 light with L33I, T51A, N53S, I56S, Y91F, I94L
B38: AB200-R1H26-R2Vk14 (antibody)
heavy: B1 heavy with T28S, I34M, N59F, E62Q, S66G, F102Y, I108L
light: B1 light with L33I, T51A, N53S, I56S, I94L, T97S
B39: AB200-R1H26-R2Vk15 (antibody)
heavy: B1 heavy with T28S, I34M, N59F, E62Q, S66G, F102Y, I108L
light: B1 light with L33I, T51A, N53S, I56S
B40: AB200-R1H26-R2Vk16 (antibody)
heavy: B1 heavy with T28S, I34M, N59F, E62Q, S66G, F102Y, I108L
light: B1 light with L33I, T51A, N53S, I56S, Y91F, I94L

Assay: ThermoFluor thermostability (Tm)
Format: physicochemical
Conditions: Fab fragment; heavy chain clone paired with light chain AB200-(2Vk30)

Row | Molecule | Tm [°C]
1 | B1 | 77.820
2 | B2 | 78.953
3 | B3 | 77.313
4 | B4 | 78.570
5 | B5 | 78.165
6 | B6 | 82.102
7 | B7 | 79.432

Same assay, conditions: Fab fragment; light chain clone paired with heavy chain AB200_R1_VH32

Row | Molecule | Tm [°C]
8 | B8 | 77.794
9 | B9 | 78.369
10 | B10 | 81.462
11 | B11 | 77.373
12 | B12 | 80.935
13 | B13 | 77.417
14 | B14 | 77.737
15 | B15 | 80.637
16 | B16 | 77.447
17 | B17 | 78.131
18 | B18 | 81.248
19 | B19 | 79.956
20 | B20 | 77.189
21 | B21 | 81.061
22 | B22 | 76.682
23 | B23 | 77.177
24 | B24 | 81.115
25 | B25 | 76.359
26 | B26 | 77.096
27 | B27 | 80.803
28 | B28 | 80.665
29 | B29 | 80.573
30 | B30 | 78.040
31 | B31 | 78.238
32 | B32 | 80.494
33 | B33 | 77.686
34 | B34 | 80.777
35 | B35 | 77.375
36 | B36 | 77.827
37 | B37 | 80.595

Same assay, conditions: Light chain screening Round 2; Fab, paired with heavy chain AB200_R1_VH26

Row | Molecule | Tm [°C]
38 | B38 | 79.433
39 | B39 | 80.321
40 | B40 | 83.455
